Test results reported in PubChem BioAssay AID1345083 (National Center for Advancing Translational Sciences (NCATS), 2018).
The whole screen tested about 94,000 compounds, of which about 6,200 (6.6%) were called active. Inconclusive means that the source gave no clear call. Such entries were picked first, then a sample of the others. Calls come from the whole dose curve; as a rule, active = well fitted inhibition curve with a large enough effect; inconclusive = small, poorly fitted or top-dose-only effect; inactive = flat fitted curve, though single readings scatter. A potency beside an inconclusive call is a rough fit, not a confirmed value.

Experiment: Cytotoxic Profiling in HEK 293 Cell Line of Diverse Libraries Using Quantitative High-Throughput Screening; note: nearly all actives have a fitted effect of over 60% in size
Conditions: HEK 293 viability, ATP luminescence (CellTiter-Glo), 48-72 h; series mostly up to 115 µM
In short: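 HEK 293 cells at 250 cells/well were exposed to compounds by pintool transfer for 48 or 72 hr at 37 degree Celsius, 5% CO2. Viability was read as ATP-coupled luminescence with CellTiter-Glo after 10 min at room temperature.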
Potency is the fitted concentration of half-maximal effect; tags give direction and shape of the fitted curve.

SMILES	Potency
COCCn1ncc(N2CCC(NC(=O)c3ccc(C)cc3C)CC2)cc1=O	inactive
COc1cccc(-c2cn3cc(C(=O)NCC(C)C)nc3s2)c1	active: 22.4 µM
O=S(=O)(c1cccs1)N1CCCC2(C1)Nc1cccnc1NC2=NC1CCCC1 (stereo not drawn)	inconclusive: 56.2 µM [inhibitor, partial curve, poor fit]
COc1cccc(CNC(=O)CCC2CCN(C(=O)c3ccccc3F)CC2)c1	inconclusive: 89.1 µM [inhibitor, partial curve, poor fit]
COc1ccc(C(=O)NC2CCCN(c3ccc4nnc(C)n4n3)C2)cc1 (stereo not drawn)	inconclusive: 79.4 µM [inhibitor, partial curve, poor fit]
Oc1ccc(-c2nc(C3CC3)nc3c2CCN(Cc2ccc(F)cc2)CC3)cc1	inconclusive: 50.1 µM [inhibitor, partial curve, poor fit]
CNc1ncccc1C(=O)N1CC[C@@H](c2ccc3c(c2)OCO3)[C@H](O)C1	inactive
CNC(=O)c1cc(C2CC2)nc2c1c(C1CCCN([S+](=O)([O-])c3cccs3)C1)nn2C (stereo not drawn)	inconclusive: 50.1 µM [inhibitor, partial curve, poor fit]
O=C(C1CC1)N1CCC2(CC1)CC(Cc1nc(-c3ccncc3)no1)CCO2 (stereo not drawn)	active: 44.7 µM
NS(=O)(=O)c1ccc(F)c(C(=O)NCc2noc(-c3ccco3)n2)c1	inactive
CCOC(=O)C1=C(C)N=C2SC=C(CC(=O)N3CCC(C)CC3)N2C1c1ccc(C)cc1C (stereo not drawn)	inconclusive: 56.2 µM [inhibitor, partial curve, poor fit]
O=C(Cc1c[nH]c2ncc(-c3ccccc3F)cc12)NCc1cccnc1	inconclusive: 70.8 µM [inhibitor, partial curve]
Cc1csc(NC(=O)[C@@H]2C[C@H](c3cccc(C(F)(F)F)c3)N(Cc3cnn(C)c3)C2)n1	inconclusive: 50.1 µM [inhibitor, partial curve, poor fit]
O=C(NC1CCCC1)N1CCC(OC2CCN(Cc3ccccc3)CC2)CC1	inactive
Cc1ccccc1C(=O)N1CCC2(CC1)Cc1ccccc1NC2=O	active: 35.5 µM
Fc1ccc(-c2cnc3n2C[C@H](CNCc2ccccn2)OC3)cc1	inconclusive: 112 µM [inhibitor, partial curve, poor fit]
CCN1c2cc(C(=O)NCc3ccc(F)c(Cl)c3)ccc2C(=O)N2CCCCCC21 (stereo not drawn)	inconclusive: 39.8 µM [inhibitor, partial curve, poor fit]
O=[S+]([O-])(C1CC1)N1C2CCC1CN(c1ccc(C(F)(F)F)cc1)C2	inconclusive: 39.8 µM [inhibitor, partial curve, poor fit]
